Hit rate of the full screen: of about 150,000 compounds, about 540 (0.36%) showed an effect of 50% or more. This is one part of the list.
System: Plasmodium falciparum
Experiment: Primary screen in NF54 nanoGlo assay, in single point, at 2uM, 72h; a lower Z score goes with more inhibition
Format: functional, Erythrocyte
Details: timepoint 72 hour

Row | SMILES | % Inhibition [%] | Z score
1 | CN(CC(=O)N1CCC2(CCC(=O)N(Cc3ccccc3)C2)CC1)C(N)=O | -14 | 2.67
2 | COc1ccc(C2=NN(C(=O)CN(CCN3CCOCC3)C(=O)CC(C)(C)C)[C@H](c3ccc4c(c3)OCO4)C2)cc1 | -11 | 1.49
3 | COc1cc(-c2noc(C)n2)ccc1OCc1cccc(C)c1 | -8 | 1.41
4 | c1cc2c(cc1-c1nnc3n1CCCC3)OCCO2 | 29 | -3.93
5 | CN1C(=O)COc2c(NC(=O)NC3CC3)cccc21 | -10 | 1.3
6 | O=C1c2ccccc2C(=O)N1CCCCN(C(=O)c1ccc(S(=O)(=O)N2CCOCC2)cc1)c1ccc(Cl)cc1 | 5 | -0.68
7 | CCc1noc(C)c1C(=O)Nc1cccc(Oc2cccnn2)c1 | -15 | 2.44
8 | CCCCN1CCN(C(=O)c2ccc3ncsc3c2)CC1=O | -13 | 1.77
9 | O=C(O)C1CCN(c2cc(-n3ccc4ccccc43)ncn2)CC1 | -1 | 0.2
10 | CC1CCC(CCC(=O)NCc2nc3ccccc3n2C2CC2)O1 (centres undefined) | 0 | -0.02
11 | O=C(c1ccc(=O)[nH]c1)N1CC[C@@]2(CCCN(Cc3ccc(F)c(F)c3)C2=O)C1 | -11 | 1.76
12 | COc1ccc(CN(C(=O)NCCN2CCCC2)C2CCCC2)cc1OC | 0 | -0.09
13 | CCCn1cnnc1CN(C)C(=O)c1ccoc1C | 19 | -2.4
14 | Cc1ccsc1-c1nccn1Cc1c(C)noc1C | -17 | 1.68
15 | COc1cnc(C(=O)NCCc2ccccc2OC)cc1O | 27 | -3.11
16 | O=C(CCc1cccs1)NCC1CCCC1 | -4 | 0.64
17 | CCOC[C@H]1CCN(Cc2nc3cc(Br)ccc3o2)C1 | -5 | 0.92
18 | Cc1cc(NC(=O)C(C)N2CCN(CC(C)O)CC2)on1 (centres undefined) | -7 | 0.76
19 | CN(C)C(=O)c1ccc(S(=O)(=O)NC2CCCCCC2)s1 | -8 | 1.54
20 | COCCC(=O)N1CCC[C@@]2(CCC(=O)N(Cc3ccccn3)C2)C1 | -3 | 0.47
21 | Cc1ccc(OCC(=O)Nc2cc(C)nn2-c2nc3c(cnn3-c3ccc(C)c(C)c3)c(=O)[nH]2)cc1 | 44 | -11.73
22 | CO[C@@]12CC[C@@H](NC(=O)C3CCC3)C[C@@H]1N(C(=O)CCn1cnnc1)CC2 | 1 | -0.12
23 | Cc1ccc(C(C)C)c(Oc2nc3ccccc3nc2N2CCOCC2)c1 | -16 | 1.82
24 | C[C@@H](C(=O)N(C)CC1CCOCC1)c1n[nH]c(=O)c2ccccc12 | -8 | 1.64
25 | C=CCc1cc(CN2CCC[C@H]2C(=O)NC)cc(OCC)c1OC | -14 | 1.78
26 | O=C(CCN1CCN(CC(=O)N2CCCc3ccccc32)CC1)NCC1CCCCC1 | -5 | 0.73

Row | SMILES | % Inhibition [%] | Z score
27 | N#Cc1cccc(-c2nc(C3CC3)nn2-c2ccccn2)c1 | -7 | 1.25
28 | CC1CCN(c2nc(N3CCN(C)CC3)nc3c2CN(S(=O)(=O)c2cccc(Cl)c2)CC3)CC1 | 4 | -0.69
29 | O=C(Nc1cccc(COc2cccc(F)c2)c1)c1cc[n+]([O-])cc1 | -9 | 0.98
30 | Cc1cnc(-c2ccc(C(=O)N(C)C[C@@]3(C)CCN(C)C3)cc2)nc1N(C)C | -4 | 0.53
31 | Cc1ccc(-c2nnc([C@H](C)N3CCCN(c4ccccc4C#N)CC3)o2)cc1 | -6 | 0.73
32 | COc1ccc(C(=O)N2CCn3c2nc2ccccc2c3=O)cc1 | -2 | 0.28
33 | CNc1nc(C(=O)N(CCOc2ccccc2)C[C@H]2CCCO2)cs1 | -13 | 1.16
34 | O=S(=O)(c1ccccc1Br)N1C2CCC1CC(n1nccn1)C2 (centres undefined) | -12 | 1.92
35 | c1ccc2c(N3CCCCCC3)nnc(-c3nc(C4CC4)no3)c2c1 | 0 | 0.04
36 | Cc1cccc2ncnc(NCc3ccc(N4CCNC(=O)C4)cc3)c12 | 3 | -0.53
37 | Cc1ccc2[nH]c3c(=O)n(C)nnc3c2c1 | -10 | 2.09
38 | Cc1cc(C(=O)N2C[C@H]3COCC[C@@]3(O)[C@@H]3COCC[C@@H]32)ccc1Cl | 2 | -0.33
39 | CC(CCc1ccccc1)NC(=O)NC1CC(=O)N(c2cccc(F)c2)C1 (centres undefined) | 27 | -3.48
40 | CCOc1ccc(C(C)(C)C(=O)N[C@H]2CCC(=O)NC2(C)C)cc1OCC | 13 | -1.96
41 | COc1cccc(NC(=O)Cn2ccc3ccc(-c4nnc(C)o4)cc32)c1 | 7 | -0.81
42 | O=C(Cn1nc2ncccn2c1=O)N1CCCCCC1 | -12 | 1.55
43 | CCN(CC(=O)Nc1c(Cl)cccc1Cl)S(=O)(=O)N1CCOCC1 | 3 | -0.52
44 | Cc1ccoc1C(=O)NC1CCN(C2Cc3ccccc3C2O)CC1 (centres undefined) | -8 | 1.03
45 | O=C1CC2(CCCCC2)CC(=O)N1C[C@H](O)c1ccccc1 | -4 | 0.8
46 | O=C(N[C@H]1CO[C@H]2[C@@H]1OC[C@@H]2Nc1nccc(-c2ccc(-c3ccccc3)cc2)n1)c1ccccc1 | -17 | 2.68
47 | Cc1c(CC(=O)N2CCNCC2)c2c(n1Cc1ccccc1F)CCCC2=O | -11 | 1.39
48 | O=C(Nc1ccccc1Cl)C1C2CCC3C(CCC21)C3(Cl)Cl (centres undefined) | -35 | 4.16
49 | Cc1cc(C)cc(NC(=O)N2C[C@H]3CC[C@H]2C3)c1 | -2 | 0.38
50 | CCc1ccc(C(=O)N2CCC3(CC2)OC[C@@H](C(=O)NC2CC2)N3C(=O)c2cccc(C)c2)cc1 | -5 | 0.55
51 | CC1CC(c2cccc(F)c2)N(C(=O)C(C)n2cncn2)C1 (centres undefined) | -13 | 1.98
52 | CC(OC(=O)c1cc(S(C)(=O)=O)ccc1Cl)C(=O)NC(C)(C#N)C(C)C (centres undefined) | -3 | 0.38
